Results as given in the supplement of paper PMC8728848.
This is one part of the list.

What was measured:
Experiment in all cases: glycan array binding signal (z-score within array); higher = stronger binding
Settings in all cases: glycan notation: IUPAC condensed, linker removed
GlcNAc(b1-3)Gal(b1-4)Glc = target: GlcNAc(b1-3)Gal(b1-4)Glc
Procedure, shortened: (§1)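 Negative Z-scores can be read as non-binding. The Z-score is calculated within each array and then averaged across arrays of one protein sequence at different concentrations or buffers and across linkers. Arrays, 3228 in all, were curated from the Consortium for Functional Glycomics database and kept only where the protein sequence was available.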

[1] = target: GlcNAc(b1-3)Gal(b1-4)GlcNAc
Procedure, shortened: as §1

[2] = target: GlcNAc(b1-3)Gal(b1-4)GlcNAc(b1-2)Man(a1-3)[GlcNAc(b1-3)Gal(b1-4)GlcNAc(b1-2)Man(a1-6)]Man(b1-4)GlcNAc(b1-4)GlcNAc
Procedure, shortened: as §1

[3] = target: GlcNAc(b1-3)Gal(b1-4)GlcNAc(b1-2)Man(a1-3)[GlcNAc(b1-3)Gal(b1-4)GlcNAc(b1-2)Man(a1-6)]Man(b1-4)GlcNAc(b1-4)[Fuc(a1-6)]GlcNAc
Procedure, shortened: as §1

[4] = target: GlcNAc(b1-3)Gal(b1-4)GlcNAc(b1-2)[GlcNAc(b1-3)Gal(b1-4)GlcNAc(b1-6)]Man(a1-6)[GlcNAc(b1-3)Gal(b1-4)GlcNAc(b1-2)Man(a1-3)]Man(b1-4)GlcNAc(b1-4)GlcNAc
Procedure, shortened: as §1

[5] = target: GlcNAc(b1-3)Gal(b1-4)GlcNAc(b1-3)Gal(b1-4)GlcNAc
Procedure, shortened: as §1

[6] = target: GlcNAc(b1-3)Gal(b1-4)GlcNAc(b1-3)Gal(b1-4)GlcNAc(b1-2)Man(a1-3)[GlcNAc(b1-3)Gal(b1-4)GlcNAc(b1-3)Gal(b1-4)GlcNAc(b1-2)Man(a1-6)]Man(b1-4)GlcNAc(b1-4)GlcNAc
Procedure, shortened: as §1

[7] = target: GlcNAc(b1-3)Gal(b1-4)GlcNAc(b1-3)Gal(b1-4)GlcNAc(b1-2)Man(a1-3)[GlcNAc(b1-3)Gal(b1-4)GlcNAc(b1-3)Gal(b1-4)GlcNAc(b1-2)Man(a1-6)]Man(b1-4)GlcNAc(b1-4)[Fuc(a1-6)]GlcNAc
Procedure, shortened: as §1

[8] = target: GlcNAc(b1-3)Gal(b1-4)GlcNAc(b1-3)Gal(b1-4)GlcNAc(b1-2)[GlcNAc(b1-3)Gal(b1-4)GlcNAc(b1-3)Gal(b1-4)GlcNAc(b1-6)]Man(a1-6)[GlcNAc(b1-3)Gal(b1-4)GlcNAc(b1-3)Gal(b1-4)GlcNAc(b1-2)Man(a1-3)]Man(b1-4)GlcNAc(b1-4)[Fuc(a1-6)]GlcNAc
Procedure, shortened: as §1

[9] = target: GlcNAc(b1-3)Gal(b1-4)GlcNAc(b1-3)Gal(b1-4)GlcNAc(b1-3)Gal(b1-4)GlcNAc(b1-2)Man(a1-3)[GlcNAc(b1-3)Gal(b1-4)GlcNAc(b1-3)Gal(b1-4)GlcNAc(b1-3)Gal(b1-4)GlcNAc(b1-2)Man(a1-6)]Man(b1-4)GlcNAc(b1-4)GlcNAc
Procedure, shortened: as §1

[10] = target: GlcNAc(b1-3)Gal(b1-4)GlcNAc(b1-3)Gal(b1-4)GlcNAc(b1-3)Gal(b1-4)GlcNAc(b1-2)Man(a1-3)[GlcNAc(b1-3)Gal(b1-4)GlcNAc(b1-3)Gal(b1-4)GlcNAc(b1-3)Gal(b1-4)GlcNAc(b1-2)Man(a1-6)]Man(b1-4)GlcNAc(b1-4)[Fuc(a1-6)]GlcNAc
Procedure, shortened: as §1

[11] = target: GlcNAc(b1-3)Gal(b1-4)GlcNAc(b1-3)Gal(b1-4)GlcNAc(b1-3)Gal(b1-4)GlcNAc(b1-2)[GlcNAc(b1-3)Gal(b1-4)GlcNAc(b1-3)Gal(b1-4)GlcNAc(b1-3)Gal(b1-4)GlcNAc(b1-6)]Man(a1-6)[GlcNAc(b1-3)Gal(b1-4)GlcNAc(b1-3)Gal(b1-4)GlcNAc(b1-3)Gal(b1-4)GlcNAc(b1-2)Man(a1-3)]Man(b1-4)GlcNAc(b1-4)[Fuc(a1-6)]GlcNAc
Procedure, shortened: as §1

[12] = target: GlcNAc(b1-3)Gal(b1-4)GlcNAc(b1-3)Gal(b1-4)GlcNAc(b1-3)Gal(b1-4)GlcNAc(b1-3)Gal(b1-4)GlcNAc(b1-2)Man(a1-3)[GlcNAc(b1-3)Gal(b1-4)GlcNAc(b1-3)Gal(b1-4)GlcNAc(b1-3)Gal(b1-4)GlcNAc(b1-3)Gal(b1-4)GlcNAc(b1-2)Man(a1-6)]Man(b1-4)GlcNAc(b1-4)GlcNAc
Procedure, shortened: as §1

[13] = target: GlcNAc(b1-3)Gal(b1-4)GlcNAc(b1-3)Gal(b1-4)GlcNAc(b1-3)Gal(b1-4)GlcNAc(b1-3)Gal(b1-4)GlcNAc(b1-2)Man(a1-3)[GlcNAc(b1-3)Gal(b1-4)GlcNAc(b1-3)Gal(b1-4)GlcNAc(b1-3)Gal(b1-4)GlcNAc(b1-3)Gal(b1-4)GlcNAc(b1-2)Man(a1-6)]Man(b1-4)GlcNAc(b1-4)[Fuc(a1-6)]GlcNAc
Procedure, shortened: as §1

[14] = target: GlcNAc(b1-3)Gal(b1-4)GlcNAc(b1-3)Gal(b1-4)GlcNAc(b1-3)Gal(b1-4)GlcNAc(b1-3)Gal(b1-4)GlcNAc(b1-2)[GlcNAc(b1-3)Gal(b1-4)GlcNAc(b1-3)Gal(b1-4)GlcNAc(b1-3)Gal(b1-4)GlcNAc(b1-3)Gal(b1-4)GlcNAc(b1-6)]Man(a1-6)[GlcNAc(b1-3)Gal(b1-4)GlcNAc(b1-3)Gal(b1-4)GlcNAc(b1-3)Gal(b1-4)GlcNAc(b1-3)Gal(b1-4)GlcNAc(b1-2)Man(a1-3)]Man(b1-4)GlcNAc(b1-4)[Fuc(a1-6)]GlcNAc
Procedure, shortened: as §1

[15] = target: GlcNAc(b1-3)Gal(b1-4)GlcNAc(b1-3)Gal(b1-4)GlcNAc(b1-3)GalNAc
Procedure, shortened: as §1

[16] = target: GlcNAc(b1-3)Gal(b1-4)GlcNAc(b1-3)GalNAc
Procedure, shortened: as §1

[17] = target: GlcNAc(b1-3)Gal(b1-4)GlcNAc(b1-3)[GlcNAc(b1-3)Gal(b1-4)GlcNAc(b1-3)]GalNAc
Procedure, shortened: as §1

[18] = target: GlcNAc(b1-3)Gal(b1-4)GlcNAc(b1-6)[Gal(b1-3)]GalNAc
Procedure, shortened: as §1

[19] = target: GlcNAc(b1-3)Gal(b1-4)GlcNAc(b1-6)[GlcNAc(b1-3)Gal(b1-3)]GalNAc
Procedure, shortened: as §1

[20] = target: GlcNAc(b1-3)Gal(b1-4)GlcNAc(b1-6)[GlcNAc(b1-3)]Gal(b1-4)GlcNAc
Procedure, shortened: as §1

GlcNAc(b1-3)GalNAc = target: GlcNAc(b1-3)GalNAc
Procedure, shortened: as §1

GlcNAc(b1-3)Man = target: GlcNAc(b1-3)Man
Procedure, shortened: as §1

[21] = target: GlcNAc(b1-3)[GlcNAc(b1-4)][GlcNAc(b1-6)]GlcNAc
Procedure, shortened: as §1

[22] = target: GlcNAc(b1-3)[GlcNAc(b1-6)]Gal(b1-4)GlcNAc
Procedure, shortened: as §1

[23] = target: GlcNAc(b1-3)[GlcNAc(b1-6)]GalNAc
Procedure, shortened: as §1

[24] = target: GlcNAc(b1-4)Gal(b1-4)GlcNAc
Procedure, shortened: as §1

GlcNAc(b1-4)GlcNAc = target: GlcNAc(b1-4)GlcNAc
Procedure, shortened: as §1

[25] = target: GlcNAc(b1-4)GlcNAc(b1-4)GlcNAc
Procedure, shortened: as §1

[26] = target: GlcNAc(b1-4)GlcNAc(b1-4)GlcNAc(b1-4)GlcNAc(b1-4)GlcNAc
Procedure, shortened: as §1

[27] = target: GlcNAc(b1-4)GlcNAc(b1-4)GlcNAc(b1-4)GlcNAc(b1-4)GlcNAc(b1-4)GlcNAc
Procedure, shortened: as §1

[28] = target: GlcNAc(b1-4)[GlcNAc(b1-6)]GalNAc
Procedure, shortened: as §1

[29] = target: GlcNAc(b1-6)Gal(b1-4)GlcNAc
Procedure, shortened: as §1

GlcNAc(b1-6)GalNAc = target: GlcNAc(b1-6)GalNAc
Procedure, shortened: as §1

[30] = target: GlcNAc6S(b1-3)Gal(b1-4)GlcNAc
Procedure, shortened: as §1

Kdn(a2-3)Gal(b1-3)GalNAc = target: Kdn(a2-3)Gal(b1-3)GalNAc
Procedure, shortened: as §1

Kdn(a2-3)Gal(b1-3)GlcNAc = target: Kdn(a2-3)Gal(b1-3)GlcNAc
Procedure, shortened: as §1

B1: SBD-G4S3-Fc (protein)
chain: MASIPSSASVQLDSYNYDGSTFSGKIYVKNIAYSKKVTVVYADGSDNWNNNGNIIAASFSGPISGSNYEYWTFSASVKGIKEFYIKYEVSGKTYYDNNNSANYQVSTGGGGSGGGGSGGGGSEFVPRDCGCKPCICTVPEVSSVFIFPPKPKDVLTITLTPKVTCVVVDISKDDPEVQFSWFVDDVEVHTAQTQPREEQFNSTFRSVSELPIMHQDWLNGKEFKCRVNSAAFPAPIEKTISKTKGRPKAPQVYTIPPPKEQMAKDKVSLTCMITDFFPEDITVEWQWNGQPAENYKNTQPIMDTDGSYFVYSKLNVQKSNWEAGNTFTCSVLHEGLHNHHTEKSLSHSPGAA
In the case of B1, the “glycan array binding signal (z-score)” value (GlcNAc(b1-3)Gal(b1-4)Glc) is reported as -0.298, the “glycan array binding signal (z-score)” value [1] is reported as -0.186 and the “glycan array binding signal (z-score)” value [2] is reported as -0.193. For the same binder, the “glycan array binding signal (z-score)” value [3] was -0.174, the “glycan array binding signal (z-score)” value [4] was 0.413 and the “glycan array binding signal (z-score)” value [5] was -0.257. The “glycan array binding signal (z-score)” value [6] was 3.18, the “glycan array binding signal (z-score)” value [7] was 1.28 and the “glycan array binding signal (z-score)” value [8] was 0.454. For the same binder, the “glycan array binding signal (z-score)” value [9] was -0.039, the “glycan array binding signal (z-score)” value [10] was 1.91 and the “glycan array binding signal (z-score)” value [11] was -0.036. For the same binder, the “glycan array binding signal (z-score)” value [12] was 0.191, the “glycan array binding signal (z-score)” value [13] was 1 and the “glycan array binding signal (z-score)” value [14] was -0.078. The “glycan array binding signal (z-score)” value [15] was -0.065, the “glycan array binding signal (z-score)” value [16] was -0.075 and the “glycan array binding signal (z-score)” value [17] was 0.059. For the same binder, the “glycan array binding signal (z-score)” value [18] was -0.034, the “glycan array binding signal (z-score)” value [19] was -0.032 and the “glycan array binding signal (z-score)” value [20] was -0.141. The “glycan array binding signal (z-score)” value (GlcNAc(b1-3)GalNAc) was -0.174, the “glycan array binding signal (z-score)” value (GlcNAc(b1-3)Man) was 0.149 and the “glycan array binding signal (z-score)” value [21] was 0.107. The “glycan array binding signal (z-score)” value [22] was -0.361, the “glycan array binding signal (z-score)” value [23] was 0.067 and the “glycan array binding signal (z-score)” value [24] was -0.117. The “glycan array binding signal (z-score)” value (GlcNAc(b1-4)GlcNAc) was -0.319, the “glycan array binding signal (z-score)” value [25] was -0.358 and the “glycan array binding signal (z-score)” value [26] was -0.26. The “glycan array binding signal (z-score)” value [27] was -0.372, the “glycan array binding signal (z-score)” value [28] was 0.069 and the “glycan array binding signal (z-score)” value [29] was 0.105. For the same binder, the “glycan array binding signal (z-score)” value (GlcNAc(b1-6)GalNAc) was -0.224, the “glycan array binding signal (z-score)” value [30] was -0.273 and the “glycan array binding signal (z-score)” value (Kdn(a2-3)Gal(b1-3)GalNAc) was -0.036. For the same binder, the “glycan array binding signal (z-score)” value (Kdn(a2-3)Gal(b1-3)GlcNAc) was -0.263.
